Results as given in PubChem BioAssay AID686970 (National Center for Advancing Translational Sciences (NCATS), 2013).
About 6,000 (1.7%) of roughly 360,000 compounds were called active. This list was built around the results that the source calls inconclusive (neither active nor inactive); the mix of calls is not that of the screen. Calls come from the whole dose curve; as a rule, active = well fitted cell-killing curve with a large enough effect; inconclusive = small, poorly fitted or top-dose-only effect, or effect the other way; inactive = flat fitted curve, though single readings scatter. No potency is given beside an inconclusive call; the fits are too rough.

experiment: qHTS for induction of synthetic lethality in tumor cells producing 2HG: qHTS for the HT-1080-NT fibrosarcoma cell line; settings: HT-1080-NT fibrosarcoma viability, CellTiter-Glo ATP luminescence, 48 h; activity, negative = less viability: at 46.1 µM (top of the series) unless noted;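 note: NT is the 2HG producing partner of a matched IDH1 knockdown line; nearly all actives have a fitted effect of over 55% in size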;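 for activity, negative = less viability: 0% = DMSO-treated cells and -100% = media-only wells without cells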
Outline: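 Toxicity toward the 2HG-producing NT line was scored as %Activity, normalised to DMSO and no-cell wells, from CellTiter-Glo luminescence after 48 hours' treatment.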
Potency is the fitted concentration of half-maximal effect; tags give direction and shape of the fitted curve.

Row | SMILES | activity, negative = less viability | Potency
1 | COc1ccc(-n2c(C)c([N+](=O)[O-])c3ccc(O)c(CN4CCCCC4)c32)cc1 | inactive: -8.76% | 
2 | COc1cc2ccccc2cc1C(=O)N/N=C/c1ccc2c(c1)OCO2 |  | inconclusive [cytotoxic, single point]
3 | COc1ccc2cc(C(=O)N3CCN(c4ccc(F)cc4)CC3)[nH]c2c1 | inactive: 10.7% | 
4 | CCCCN(CCCC)c1nn[nH]n1 |  | inconclusive [rising, partial curve]
5 | COCCN(C(=O)Cc1cccs1)C(C(=O)NCc1ccc(OC)cc1)c1ccc(OC)cc1 (stereo not drawn) | inconclusive: -1.31% [cytotoxic] | 
6 | COC(=O)Cc1ccc(NC(=O)c2ccc(NC(=O)c3ccco3)cc2)cc1 | inconclusive: 24.8% | 
7 | CC(C)C[C@H](NC(=O)c1nc[nH]c1C(=O)NC(c1ccccc1)c1ccccc1)C(=O)OC(C)(C)C |  | active: 25.9 µM
8 | CCOc1cc(-c2cc(-c3ccc(C)o3)nc(N)c2C#N)ccc1O |  | inconclusive [cytotoxic, single point]
9 | COc1ccc(NC(=O)COc2ccccc2C(=O)NCC(c2ccccc2)N(C)C)cc1Cl (stereo not drawn) |  | inconclusive [cytotoxic, single point]
10 | CC(O)CNCCCOc1ccc(Cl)cc1C(C)(C)C (stereo not drawn) |  | active: 18.4 µM
11 | CC(=O)O/N=C/c1c(N2CCOCC2)n(C)c2ccccc12 |  | inconclusive [cytotoxic, single point]
12 | Oc1ccccc1/C=N/NC(=S)NC1CC2CC1C1C=CCC21 (stereo not drawn) |  | inconclusive [cytotoxic, single point]
13 | CCOc1ccccc1NC1=CC(=O)CC(c2ccccc2)C1 (stereo not drawn) |  | inconclusive [cytotoxic, single point]
14 | CC/C(C)=N/NC(=O)c1[nH]c2ccc(C)cc2c1-c1ccccc1 |  | inconclusive [cytotoxic, single point]
15 | CCOC(=O)c1c(S(=O)(=O)N2CCCCC2C)c(C)n(C)c1C (stereo not drawn) | inactive: 10.1% | 
16 | Cc1cc(=O)n2c3ccccc3n(CC(O)CN3CCCC3)c2c1C#N (stereo not drawn) |  | inconclusive [cytotoxic, single point]
17 | CC(C)C[C@H](NC(=O)c1nc[nH]c1C(=O)N[C@@H](CC(C)C)C(=O)OCc1ccccc1)C(=O)OCc1ccccc1 |  | inconclusive [cytotoxic, single point]
18 | COc1cc(/C=C2\SC(=S)N(Nc3ccccc3)C2=O)cc(OC)c1OC |  | inconclusive [cytotoxic, full curve, poor fit]
19 | O=[N+]([O-])c1ccc(Sc2cccc[n+]2[O-])c2nonc12 |  | active: 0.146 µM
20 | COc1ccc(CNc2nc(NCc3ccc(OC)cc3)c3ncn(C4CCCC4)c3n2)cc1 |  | active: 7.31 µM
21 | O=C(/C=C/c1cccs1)Nc1nc(-c2ccccc2)cs1 |  | inconclusive [cytotoxic, single point]
22 | Cc1cccc(NC(=S)N2CCC(C(=O)c3ccc(F)cc3)CC2)c1C |  | inconclusive [cytotoxic, single point]
23 | CC(Cc1ccc(Cl)cc1)N1CCC(n2nccc2NC(=O)C2CCCC2)CC1 (stereo not drawn) |  | inconclusive [cytotoxic, partial curve]
24 | CC1CN(CC(=O)NCc2ccc(Cl)cc2)CC(C)O1 (stereo not drawn) | inactive: -0.516% | 
25 | CC(=O)c1cccc(NC(=O)c2ccc(N(Cc3ccc(C)cc3)S(C)(=O)=O)cc2)c1 |  | inconclusive [cytotoxic, single point]

Row | SMILES | activity, negative = less viability | Potency
26 | CNC[C@@H](C)NC[C@@H](Cc1ccccc1)NCCc1ccccc1 |  | inconclusive [cytotoxic, single point]
27 | COc1ccc(NS(=O)(=O)c2ccc(NC(=O)c3ccc(N(C)S(C)(=O)=O)cc3)cc2)c(OC)c1 |  | inconclusive [cytotoxic, single point]
28 | O=C(Nc1ccccc1)c1cccc(NC(=O)c2ccco2)c1 | inactive: -9.59% | 
29 | CCOC(=O)c1sc2ccccc2c1OC(=O)c1ccccc1OC |  | inconclusive [cytotoxic, single point]
30 | C[C@@H]1CN([C@H](C)CO)C(=O)CCCn2nncc2CO[C@H]1CN(C)CC1CC1 | inactive: 19.9% | 
31 | COc1ccc(N2CCN(C(=O)c3ccc4c(c3)CCN4S(=O)(=O)c3ccccc3)CC2)cc1 |  | inconclusive [cytotoxic, single point]
32 | CN1CCC(CC(C(=O)N2CCCC2)(c2ccccc2)c2ccccc2)C1 (stereo not drawn) | inactive: -13.7% | 
33 | Cc1nc2c(-c3ccccc3)c(C)nn2c(N)c1-c1ccccc1 |  | inconclusive [cytotoxic, single point]
34 | Cc1cc(OCC(O)CN2C(C)CCCC2C)ccc1C(C)C (stereo not drawn) | inconclusive: -31.3% [cytotoxic] | 
35 | O=C(Nc1cc(S(=O)(=O)Nc2ccc(Cl)cc2)ccc1N1CCCCC1)c1ccc(F)cc1 |  | inconclusive [cytotoxic, partial curve]
36 | CC1=NOC(=O)/C1=C\c1ccc(-c2cccc(Cl)c2)o1 |  | inconclusive [cytotoxic, single point]
37 | Cc1cccc(OCC(=O)Nc2ccc3c(c2)OCCO3)c1 | inconclusive: 17.5% | 
38 | Cc1cc(NC(=O)Nc2ccc(F)cc2)no1 | inactive: 7.28% | 
39 | Cc1ccc(S(=O)(=O)Nc2ccc(Br)cc2/C=N/n2cnnc2)cc1 |  | active: 12.6 µM
40 | O=C1[C@H](Cc2ccccc2)NCCCC[C@H](c2ccc(Cl)cc2)N1Cc1ccc(Cl)cc1 | inactive: -18.6% | 
41 | O=C(NNc1cc(N2CCOCC2)nc(N2CCOCC2)n1)C12CC3CC(CC(C3)C1)C2 | inactive: 4.24% | 
42 | Cc1ccc2c(CC(=O)NNC(=O)c3ccccc3O)coc2c1 |  | inconclusive [cytotoxic, single point]
43 | C/C=C/c1c(F)c(F)c(Oc2ccc(C(=O)O)cc2)c(F)c1F |  | active: 15.8 µM
44 | Cc1cc2ccccc2n1CCNC(=O)COc1ccc2ccccc2c1 |  | inconclusive [cytotoxic, single point]
45 | COc1ccc(OC)c(Nc2ncnc3c2cnn3-c2cccc(C)c2)c1 |  | active: 7.08 µM
46 | CCC(=NCCc1c(C)[nH]c2ccc(C)cc12)C1=C(O)CC(c2ccccc2)CC1=O (stereo not drawn) |  | inconclusive [cytotoxic, full curve]
47 | O=C(Nc1cccc(F)c1)N1CCc2nc(NCc3cccc(Oc4ccccc4)c3)ncc2C1 |  | active: 23.1 µM
48 | Nc1ccc(C(=O)OCc2nc3cc4ccccc4cc3[nH]2)cc1 | inconclusive: -16.4% [cytotoxic] | 
49 | COc1ccc(C2CC(c3ccncc3)=NN2c2ccc(S(N)(=O)=O)cc2)cc1 (stereo not drawn) |  | inconclusive [cytotoxic, single point]
50 | CCS(=O)(=O)Nc1ccc(C2=NN(C(C)=O)C(c3cccs3)C2)cc1 (stereo not drawn) |  | active: 23.1 µM

Row | SMILES | activity, negative = less viability | Potency
51 | CCOc1ccc2[nH]c3c(N4CCN(C(=O)c5ccco5)CC4)ncnc3c2c1 |  | inconclusive [cytotoxic, partial curve]
52 | CN1CC(=O)Nc2ccc(F)cc2C1=O |  | inconclusive [rising, full curve, poor fit]
53 | O=c1nc2ccccc2c2n1CC(CN1CCN(c3ccc(F)cc3)CC1)N2 (stereo not drawn) | inactive: 0.648% | 
54 | O=C(N/N=C/C(Br)=C\c1ccccc1)c1ccc2nc[nH]c2c1 | inactive: 0.166% | 
55 | CCOc1ccc(NC(=S)NC2CC3CCC(C2)N3Cc2ccco2)cc1 (stereo not drawn) | inactive: -12.5% | 
56 | COc1cc(OC)c(OC)cc1CN(C)CC1CCCN(CCc2ccccc2F)C1 (stereo not drawn) | inactive: -25.5% | 
57 | CCc1ccc(OCCCC(=O)NCc2ccccc2)cc1 |  | inconclusive [cytotoxic, single point]
58 | NC(=O)C(c1ccc(Br)cc1)c1ccc(C(=O)c2ccccc2)cc1 (stereo not drawn) |  | inconclusive [cytotoxic, partial curve]
59 | CCC(CC)C(C(=O)NCc1ccccc1)N(C)Cc1ccc(Cl)c(Cl)c1 (stereo not drawn) |  | inconclusive [cytotoxic, single point]
60 | CCOC(=O)c1cnc(SCc2nc(N)nc(Nc3ccc(C)cc3)n2)nc1N |  | inconclusive [cytotoxic, partial curve]
61 | Cc1nnc(SCC(=O)NCC2COc3ccccc3O2)s1 (stereo not drawn) | inactive: 5.31% | 
62 | CC(C)[C@@H](CO)NC(=O)[C@H]1O[C@@H](n2cnc3c(N)ncnc32)[C@H](O)[C@@H]1O | inactive: 15.6% | 
63 | COc1ccc(-c2ccc(CNCCCN3CCOCC3)o2)cc1Cl |  | inconclusive [cytotoxic, single point]
64 | COc1cc(OC)cc(C(=O)Nc2ccccc2-c2nnn(CC(=O)Nc3cc(C)on3)n2)c1 | inactive: 9.75% | 
65 | COC(=O)c1c(NC(=O)CSc2nncs2)sc2c1CCCCC2 |  | inconclusive [cytotoxic, single point]
66 | Cc1ccccc1Nc1nc(N)c2ccccc2n1 |  | inconclusive [cytotoxic, single point]
67 | Cc1cc(NC(=O)CSc2nnc(-c3ccncc3)n2-c2ccccc2)no1 | inactive: -0.654% | 
68 | COc1ccc(/C=C2/SC(=S)N(CCCC(=O)Nc3cccc(O)c3)C2=O)cc1 |  | inconclusive [cytotoxic, single point]
69 | CC[C@]1(C(=O)OC)[C@H]2C(=O)N(C)C(=O)[C@H]2[C@H]2CN=C(SCC3CC3)N21 | inactive: 4.04% | 
70 | Cc1cc(C)cc(N(C(=O)c2ccc(Br)o2)C2C=CS(=O)(=O)C2)c1 (stereo not drawn) | inactive: 18.3% | 
71 | COc1cc(C2CC(=O)Nc3n[nH]c(-c4ccccc4)c32)cc(OC)c1OC (stereo not drawn) |  | inconclusive [cytotoxic, single point]
72 | CCCn1c(=O)c(C(=O)NNC(=O)c2ccccc2Cl)c(O)c2ccccc21 | inactive: -8.04% | 
73 | Cc1cccc(OCCSc2nc3c([nH]2)c(=N)ncn3Cc2ccccc2)c1 |  | inconclusive [cytotoxic, single point]
